The target of assay [1] is T1, monkey CD19 on HEK293T-monkey CD19 cells (monkey).
T1 construct: whole, on cells
Put plainly: FACS on HEK293T-monkey CD19 cells. The method, then: (§1) After the digestion was terminated, the cells were washed 2 times with a PBS buffer; and for suspension cell Raji, the supernatant of the medium was discarded by directly centrifugation, and the cell pellet was washed 2 times with PBS. After counting the cells in the previous step, the cell pellet was resuspended with [PBS+2% (w/w) BSA] blocking solution to 2×10⁶ cells/ml, and added to a 96-well FACS reaction plate at 50 μl/well, and then the sample to be tested was added at 50 μl/well, and incubated on ice for 2 h. The obtained mixture was centrifuged and washed 3 times with a PBS buffer. […] The obtained mixture was centrifuged and washed 5 times with a PBS buffer, and FACS (FACS Canto™, purchased from BD Company) was used for detection and result analysis. Data analysis was performed by software (FlowJo) to obtain the mean fluorescence intensity (MFI) of the cells. And then software (GraphPad Prism8) was used for analysis, data fitting, and EC50 value calculation. […] The same method was used to detect the binding of the chimeric antibodies to endogenous CD19-negative cells, MoLT4 cells (purchased from ATCC, CRL-1582), and CHO-K1 cells.
(§2) HEK293T-monkey CD19 cells were subjected to FACS detection and data analysis according to the method in example 5.2. […] The same method was used to detect binding of the chimeric antibodies to HEK293T cells.

For assay [2], the target named is T2, cynomolgus monkey CD19 on peripheral blood B cells (cynomolgus monkey (Macaca fascicularis), UniProt A0A2K5W8L9 20-557).
T2 construct: whole, on cells; also called cynomolgus monkey B cells
T2 sequence: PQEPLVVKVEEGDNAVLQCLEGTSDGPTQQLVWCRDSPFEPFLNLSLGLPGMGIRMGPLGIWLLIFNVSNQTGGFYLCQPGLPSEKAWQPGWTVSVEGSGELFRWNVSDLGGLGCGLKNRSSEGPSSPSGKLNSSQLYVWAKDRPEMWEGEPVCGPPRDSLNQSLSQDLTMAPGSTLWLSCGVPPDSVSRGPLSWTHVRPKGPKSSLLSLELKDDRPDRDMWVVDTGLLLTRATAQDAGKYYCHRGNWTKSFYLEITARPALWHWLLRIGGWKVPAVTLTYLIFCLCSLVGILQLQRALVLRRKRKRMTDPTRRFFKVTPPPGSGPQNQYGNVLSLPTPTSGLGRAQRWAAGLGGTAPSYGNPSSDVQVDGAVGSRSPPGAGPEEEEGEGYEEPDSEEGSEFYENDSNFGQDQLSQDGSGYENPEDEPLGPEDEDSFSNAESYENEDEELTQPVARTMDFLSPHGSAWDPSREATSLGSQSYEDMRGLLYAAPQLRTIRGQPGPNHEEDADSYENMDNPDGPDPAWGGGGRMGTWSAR
Put plainly: FACS, cynomolgus PBMC, CD20+ B cells. How it is done:
The monkey peripheral blood mononuclear cells were extracted from fresh cynomolgus monkey peripheral blood (purchased from Shanghai Medicilon Inc.) according to the instructions of Ficoll-Paque Plus (purchased from GE Healthcae, catalog number: 171440-02). After the cell suspension was centrifuged, the cells were resuspended in PBS containing 1% BSA, and then the cells were counted. […] The mixture was incubated for 1 h at room temperature. After washing the cells three times, APC-labeled secondary antibody anti-human IgG Fc (catalog number: 409306, purchased from Biolegend) was added. After incubation at room temperature in the dark for 30 minutes, the cells were washed 5 times, gently resuspended with PBS containing 1% BSA, and detected and analyzed by FACS (FACS Canto™, purchased from BD Company), in which CD20 was used as a marker of B cells to gate the CD20-positive B cell population, the proportion of the chimeric antibody-labeled positive cells was analyzed, and the proportion of the chimeric antibody positive cell population to B cell population was calculated after treatments with the chimeric antibodies at the concentrations of 100 nM, 10 nM and 1 nM, respectively.
For orientation: In flow cytometry, cells or beads pass a laser one at a time.

Assay [3] has as its target T1, monkey CD19 on HEK293T-monkey CD19 cells. Put plainly: FACS on HEK293T-monkey CD19 cells. The method, then:
as §1, §2
The source holds these as a separate data set.

Usually EC50 stands for the concentration needed to bring the measured effect to its halfway point.

Where two headings read alike, the source gives them in different places.

B1: 9G8-hIgG1 (antibody)
heavy: EVQLVQSGAEVKKPGESLKISCKGSGYSFTSYWIGWVRQMPGKGLEWMGIIYPGDSDTRYSPSFQGQVTISADKSISTAYLQWSSLKASDTAMYYCARGVSGIYNLHGFDIWGQGTLVTVSS[human IgG1 constant region cut from this listing]
light: DIQMTQSPSSLSASVGDRVTITCRASQSISSYLNWYQQKPGKAPKLLIYAASSLQSGVPSRFSGSGSGTDFTLTISSLQPEDFATYYCQQGRFGSPFTFGQGTKVEIKRTVAAPSVFIFPPSDEQLKSGTASVVCLLNNFYPREAKVQWKVDNALQSGNSQESVTEQDSKDSTYSLSSTLTLSKADYEKHKVYACEVTHQGLSSPVTKSFNRGEC
notes: control antibody
As for B1, in assay [1], the midpoint of the response, the EC50, lay at 3.64 nM and the “Maximum mean fluorescence intensity” value was found to be 28800. Moreover, in assay [2], the “Proportion of chimeric antibody positive cells to B cells (%) at 1 nM” value stood at 3%, the “Proportion of chimeric antibody positive cells to B cells (%) at 10 nM” value stood at 14% and the “Proportion of chimeric antibody positive cells to B cells (%) at 100 nM” value is 71%. In assay [3], it took 3 nM to reach a half-maximal effect (EC50) and the “Maximum mean fluorescence intensity” value stood at 85700.

For the origin of these results see patent US20250042994A1 (HAINAN SIMCERE ZAIMING PHARMACEUTICAL, published 2025).
